The list shows a part of the results.
test system: PfAP2-HC AP2 domain (GST-tagged); assay: gcPBM binding intensity (ln(normalized median fluorescence intensity)); higher = stronger DNA binding
Procedure, shortened: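 After 1 h on an Agilent 4 × 180k array of primer-extended double-stranded 36-bp intergenic genomic probes and negative controls, bound GST-tagged P. falciparum DNA-binding domains were detected with Alexa488 anti-GST antibody and scanned at 488 nm. The domains had been expressed in E. coli, and binding took place in 1× PBS with 1% milk, 0.2 mg/ml BSA, 0.5% salmon testes DNA and 0.03% Triton X-100. Binding intensity is the highest Masliner-normalised natural-log median intensity across replicate spots of either probe orientation.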

| Sequence | gcPBM binding intensity (ln) |
| --- | --- |
| GTATGTATGTATGTATGTACGTATTTATTTATTTAA [XGTACX_site726] | 9.73 |
| AAGAAAAATAATTAGGGTGAAAATATATAGAGTAAA [TGCATGCA_negctrl_site590] | 9.69 |
| CAATTCTTAAGTTCTTGTACGAAAAACGACAATTTA [XGTACX_site3890] | 9.34 |
| GGTAATAATATGCATAGTACATAATATATATATATA [XGTACX_site6793] | 9.72 |
| TATTATATAAAATATTTTATTATATCATCTTCTCTA [XGTACX_negctrl_site319] | 9.44 |
| ATCATATTTTTATGTGTGCACTTTTTTTTTTTTTTT [GTGCAC_site9555] | 10.1 |
| CTCTTATACATATTCCTGCACTTATTTTTAAAAACA [GTGCAC_site9620] | 9.75 |
| AAAAATGGTGTTAACACACACATATAAATAAATATA [CACACA_site6412] | 10.4 |
| AAGGATCACCCACAAACACACATATATATATATATA [CACACA_site559] | 10.7 |
| AACATAAGTAATATTTGTACATATATAATAATATAT [XGTACX_site5123] | 9.74 |
| AACATGCAAACATGCACACAGAAAAAAAAAATATAT [CACACA_site1565] | 10 |
| TTACACATACATATGTGGGAAAATATTGCTACATAT [CACACA_negctrl_site463] | 9.78 |
| AAGAAAAGCATAGATGCACACATATATATATATATA [CACACA_site8675] | 10.5 |
| GGAACTTAAAAAAAATGTACTTATAAAAAAGGAAAT [XGTACX_site8186] | 9.56 |
| AAAAAAATATATATATGTACATAACTTTGTTGTGAT [XGTACX_site5243] | 9.8 |
| TGTTAAATTATTTATCAGATTATTATTTGTAAATAA [CACACA_negctrl_site1535] | 9.28 |
| TTTGAACATTTTGCAAGTACAAAAAAATAATATATC [XGTACX_site8079] | 9.53 |
| TATATATATATATATACACACATATATATATTTTTC [CACACA_site3983] | 10.1 |
| ATCATTATATTATGGTGTACCCATATATAATTATCA [XGTACX_site551] | 9.61 |
| AATTTAAAGAATTGTAGTACAATGAAATATATATAA [XGTACX_site7970] | 9.95 |
| CATTAAACCGTGGGAGCACACACACCCACCCACCCA [CACACA_site8000] | 10 |
| AATACCTATGGAATTAATAATATGTGTACAGACACA [TGCATGCA_negctrl_site547] | 9.63 |
| AACAATGGATTATTCACACATAAAAAAATTCACATT [CACACA_site5437] | 9.66 |

| Sequence | gcPBM binding intensity (ln) |
| --- | --- |
| TTATAATAAAAGGCTTTACAATTATTAAACAAATAA [GTGCAC_negctrl_site480] | 9.35 |
| AAAAAAGAAGAGCACACACACATATATAAATATAAA [CACACA_site631] | 10.4 |
| GCCATTGTACCATCCACACACATATATATCTGTATA [CACACA_site5490] | 10.2 |
| TGGTATTAAGGAGAGGGTACAAAAAAAAAAAAAAAA [XGTACX_site1668] | 9.01 |
| AAAGATGAATTTTTTACACACACCATTTTATAATAT [CACACA_site3676] | 10.2 |
| TAAAATTTTGTTTGTTGTACTTATTTTCGTGTCAAC [XGTACX_site8277] | 9.58 |
| AAAAGTATAATAAATTGTACTAACAAATATTTATGT [XGTACX_site7721] | 9.7 |
| AAAAAAAAAAAAAAAAAAAAATATATATATATATAT [GTGCAC_negctrl_site426] | 9.47 |
| AATGTAAAACCTCCTACACACACCAATTAACTATTC [CACACA_site2112] | 10.2 |
| TACTTATCGTTAAATTGTACTAAAAAATATTTTTCT [XGTACX_site4665] | 9.64 |
| AGGGAATATTTTTATGCATGTGCTTACACATTACAA [TGCATGCA_site830] | 9.75 |
| AAAAAAAACGGACACACACACATACAAAATATATAT [CACACA_site4910] | 10.8 |
| TTCTAATATTTACATAATATATAGAAATATAAAGGT [XGTACX_negctrl_site504] | 9.56 |
| AAATATAAACTCAGCACACAAACATATATATGTCAT [CACACA_site4004] | 9.99 |
| ATGGTATAAAAAAATACACACTTATATATATTCTTA [CACACA_site4427] | 9.69 |
| TTTTTTTTTTTTTCTCGTACAAAATAATACCTTTTT [XGTACX_site3867] | 9.44 |
| GTAGACATTATAATGGTGCAAAAAAATTAACAAAAA [GTGCAC_site9891] | 9.86 |
| AAGTATGCGTTATATACACACATACATTTATATATC [CACACA_site6207] | 9.91 |
| TCAGAGTGAAGTTATACACACATGGTTTTTTTTTTT [CACACA_site2116] | 9.69 |
| AGAGAGAAAGCTATAACATGCAACAATTTTTAGAAA [TGCATGCA_site95] | 9.63 |
| AGGAGGATATTACACAGTACCCAGTAACTCTACGGA [XGTACX_site1998] | 9.74 |
| GTAATATATTTTTATGGTACACGAACTAGCCAAAAA [XGTACX_site6307] | 9.62 |
| TAATATATTTATAAGTGTACACATTATATAAATCCC [XGTACX_site8875] | 9.64 |

| Sequence | gcPBM binding intensity (ln) |
| --- | --- |
| AGTAATAACTATATATGTACATATATATATTATTAG [XGTACX_site1113] | 9.71 |
| CCGCATTTTACAGACACACACAATTTATATTACGGT [CACACA_site6974] | 9.95 |
| TTTTTTTGATAAAAGGTGCTACAAGATGAATACATA | 9.4 |
| TTTTTTTTTTTAAATACATGCATGTCCTATTTAAAT [TGCATGCA_site494] | 9.8 |
| ATAAATAAAAAAAAAAAAAAAAAAAAAAAAAAAATA [CACACA_negctrl_site1064] | 9.31 |
| GTTGTATAAAATAATACATGCATGTCCTACATATAT [TGCATGCA_site162] | 10.2 |
| TATATTATTTATTTTTGTACATATTATGAATGAATA [XGTACX_site3971] | 9.51 |
| TTACCTTTAAATGGATGTACAGAAATTTAAATTGTT [XGTACX_site7044] | 9.53 |
| CTTCCTTCTAAATGCACACGGAAAGTATAAATGTAT [CACACA_site2501] | 9.62 |
| TATATACAAAAAATATGTACATATATATATATATAT [XGTACX_site3497] | 9.94 |
| AGAGATATAAGAAAAGCACACACACCCAAAAAAAAA [CACACA_site8917] | 10.5 |
| AAAAAATAAATAAATACACACACACTAATATATATA [CACACA_site8488] | 10.6 |
| ATTATTTATATTATGGTGCATAATTTTGGGTTTCTT | 9.71 |
| TATTTGTTTTTATATAGTACATAAATATATATATAT [XGTACX_site7834] | 9.7 |
| AAAATAAATATGAACACACACATTTATGCCTTTAAA [CACACA_site1271] | 10 |
| CCTCTTAATATGTGCACACTAAATTATAACATAATT [CACACA_site3259] | 9.95 |
| GGTTAACATAAATATATACACACCAATGATGGCATT [CACACA_site1568] | 9.76 |
| TGAAAAGTAAAATACACACACATAATCTAATTTATA [CACACA_site7024] | 10.1 |
| TATATTATTTATTAGACACACATTATTAATATATTT [CACACA_site1078] | 9.79 |
| TGGATTTTGTATTAATGTACATATATATATATATAT [XGTACX_site4442] | 9.73 |
| CAGATAGACTTATATGCATGCATTCACATACCAACA [TGCATGCA_site163] | 9.65 |
| AACAACATTTTGTAATGTACATATTTACTTATATTC [XGTACX_site7251] | 9.7 |
| AAATAATTAGAAATAGTGCACATAATTAAGGGATAC | 10.1 |

| Sequence | gcPBM binding intensity (ln) |
| --- | --- |
| TAGAAATATATAAATTGTACATGTTTGTATAATATA [XGTACX_site2097] | 9.62 |
| ATAATATCATCAAACGCACACATACATAAATATATT [CACACA_site5230] | 10 |
| ACATATTATATGAATACACACAAAAACTTATCGGTA [CACACA_site3439] | 9.98 |
| TATTTTTATAATATATGTACATATATATATATATTA [XGTACX_site5343] | 9.69 |
| TTTTTTTTTTTTTTTTGTACGTAAAAAAATATATAC [XGTACX_site1290] | 9.11 |
| TTGTTATATTACAGTAGTACATTTAAAATCTACTAC [XGTACX_site2620] | 9.62 |
| ATTTTTATTTACAACCCCAAAAAGGAAAAACATAAA [CACACA_negctrl_site1169] | 9.5 |
| AATATTTATACTATAACACACATACAGACAAAAAAA [CACACA_site6396] | 9.94 |
| TTACATTATATACATACACACCCACCCACAAAAAAA [CACACA_site8187] | 10.3 |
| AAGACAATATATGCAGTGCATATACATACATATATA | 9.7 |
| GCATAATATACTCTTACACACCATTTCTAAATACAT [CACACA_site4912] | 9.99 |
| AAAAAAAAAAAAAAAAGTACGTATTTTTTTTAAAAT [XGTACX_site2654] | 9.49 |
| ACAGGAAAAAACAATTGTACATGTATATATATATAT [XGTACX_site7677] | 10 |
| ATATATATATATATATGTACATATTTTATTTGAAAT [XGTACX_site7411] | 9.83 |
| CAAAATAAAAATTAATGTACATAAAAAATGAATATA [XGTACX_site1085] | 9.88 |
| AAAAAAATAATTTGTAGTACGATTCAATGAAAAGGC [XGTACX_site1287] | 9.92 |
| ATACATATATACATATGTACATATATATATATATAT [XGTACX_site8206] | 9.77 |
| TTGAAAATGAAAAAATGTACTTAAAAAAAAGGAACA [XGTACX_site8664] | 9.73 |
| TCTTTGAATTTTTTAACACACACATGGGTGGATATA [CACACA_site8474] | 9.84 |
| ATAAAATTGTATAACTGTACATATATATATATATAT [XGTACX_site5596] | 9.91 |

Source: the supplement of paper PMC11417369
